Measurements from PubChem BioAssay AID686978 (National Center for Advancing Translational Sciences (NCATS), 2013).
The whole screen tested about 420,000 compounds, of which about 64,000 (15%) were called active. Inconclusive means that the source gave no clear call. Such entries were picked first, then a sample of the others. Calls come from the whole dose curve; as a rule, active = well fitted inhibition curve with a large enough effect; inconclusive = small, poorly fitted or top-dose-only effect; inactive = flat fitted curve, though single readings scatter. Potencies of inconclusive entries are left out as doubtful fits.

experiment: qHTS for Inhibitors of human tyrosyl-DNA phosphodiesterase 1 (TDP1): qHTS in cells in absence of CPT; settings: DT40 Tdp1-/- hTDP1 cells, no CPT, ATP luminescence, 48 h; series mostly up to 46.2 µM; note: nearly all actives have a fitted effect of over 55% in size
In short: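 Chicken DT40 Tdp1-/- cells complemented with human TDP1, screened without camptothecin (DMSO vehicle only), 400 cells/well. Compounds pin-transferred, cells incubated at 37 °C for at least 48 hr. Growth read as ATP-dependent luminescence (CellTiter-Glo, 30 min at RT).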
Potency is the fitted concentration of half-maximal effect; tags give direction and shape of the fitted curve.

| SMILES | Potency |
| --- | --- |
| COc1cc(OC)cc(C(=O)NCCN2C(=O)S/C(=C\c3cccs3)C2=O)c1 | active: 16.4 µM |
| Cc1ccc(C(=O)Nc2ccc3c(c2)C(=O)NC3=O)cc1 | inactive |
| CC(=O)c1ccc(NC(=O)Nc2nnc(N3CCCC(C)C3)s2)cc1 (centres undefined) | active: 18.4 µM |
| COC(=O)c1ccc(C(=O)NC2CCCc3c2cnn3-c2ccccc2F)nc1 (centres undefined) | active: 2.91 µM |
| Nc1c2c(nc3sc4c(c13)CCCC4)-c1ccccc1CC2 | inconclusive [inhibitor, single point] |
| COc1ccc(C(=O)NC(=S)N2CCN(c3ccc([N+](=O)[O-])cc3)CC2)cc1 | inconclusive [inhibitor, single point] |
| COc1cccc(-c2ccc3ncnc(NCc4ccc(OC)cc4OC)c3c2)c1 | inconclusive [inhibitor, single point] |
| C[C@@H]1CN([C@H](C)CO)C(=O)c2cc(NS(=O)(=O)c3cn(C)cn3)ccc2O[C@H]1CN(C)C(=O)Nc1ccccc1 | inactive |
| O=c1c(-c2ccc(Cl)cc2)c[nH]n1-c1ccccc1 | inconclusive [inhibitor, partial curve] |
| COc1ccc(Cl)cc1Nc1ncnc2c1c(-c1ccccc1)cn2-c1ccccc1 | inactive |
| CC(C)(C)c1ccc(C(=O)N2CCNC(=O)C2CC(=O)Nc2ccc(F)cc2)cc1 (centres undefined) | inactive |
| O=C(CN1C(=O)NC2(CCCC2)C1=O)NCCN1C(=O)S/C(=C\c2ccccc2F)C1=O | inconclusive [inhibitor, single point] |
| CCN1CCN(c2ccc(S(=O)(=O)N3CCCCC3)cc2NC(=O)c2cccc(OC(F)F)c2)CC1 | active: 20.6 µM |
| CCOc1ccccc1N(CC(=O)N1CCOCC1)S(=O)(=O)c1ccc(SC)cc1 | inactive |
| CC(C)(C)OC(=O)N1CCC(c2c(C(=O)NCc3cccs3)cnn2-c2ccc(F)cc2F)CC1 | inconclusive [inhibitor, single point] |
| CCOC(=O)C1=C(CC)Nc2ccccc2N=C1NC(=O)c1cc(S(=O)(=O)N2CCOCC2)ccc1C | inactive |
| N=C1C(c2ccccc2)=C(O)CN1c1ccc2c(c1)OCO2 | inactive |
| COc1ccc(C2CCCCCN2C(=O)C2CCN(S(=O)(=O)c3ccc(C)cc3)CC2)cc1 (centres undefined) | inconclusive [inhibitor, single point] |
| OCCN1CCN(Cc2ccc3c(c2)CN(Cc2cccc4ncccc24)CCO3)CC1 | inconclusive [inhibitor, single point] |
| Clc1ccc(CN=C(Nc2ccccc2)NC2CCCCC2)cc1 | active: 23.1 µM |
| COc1ccc(/C=C2\Sc3ccc(C(=O)NC4CC4)cc3N(C)C2=O)cc1OC | inconclusive [inhibitor, single point] |
| CCOc1ccc(CCNC(=O)c2cccc(S(=O)(=O)N3CCOCC3)c2)cc1OCC | inactive |

| SMILES | Potency |
| --- | --- |
| CC(=O)Nc1ccc(Nc2nnc(-c3ccc(C)c(S(=O)(=O)NCC4CCCO4)c3)c3ccccc23)cc1 (centres undefined) | inactive |
| Cc1ccc(C(=O)COC(=O)CCCC(=O)NC2CCCCC2)cc1[N+](=O)[O-] | inactive |
| Cc1cc(C2C(C#N)=C(N)Oc3n[nH]c(C)c32)c(C)s1 (centres undefined) | inconclusive [inhibitor, partial curve, poor fit] |
| CC(C)C(=O)O/N=C(\N)c1ccc(Oc2ccc(Cl)cc2)c([N+](=O)[O-])c1 | inconclusive [inhibitor, partial curve] |
| Cc1ccc(C)c2c1cc(C)c1nnc(SCc3ccccn3)n12 | inactive |
| CCN(CC)S(=O)(=O)c1ccc(S(=O)(=O)N(CC(=O)Nc2ccccc2)CC2CCCO2)cc1 (centres undefined) | inconclusive [inhibitor, single point] |
| CC(=O)Nc1ccc(S(=O)(=O)O)c2cc(S(=O)(=O)O)c(N=Nc3ccc(N=Nc4ccc(S(=O)(=O)O)cc4)c4ccc(S(=O)(=O)O)cc34)c(O)c12 | active: 12.6 µM |
| CN1OC[C@@H]2CN(Cc3ccccc3)[C@H](c3ccc(N4CCCCC4)cc3)C[C@@H]21 | inconclusive [inhibitor, single point] |
| Oc1cccc2ccc(/C=C/c3ccccc3Cl)nc12 | active: 7.31 µM |
| CC1CCN(Cc2c(C(=O)N3CCc4ccccc4C3)nc3ccc(Cl)cn23)CC1 | inconclusive [inhibitor, single point] |
| CCOc1ccccc1C=C1SC(=S)NC1=O | inconclusive [inhibitor, single point] |
| Cc1noc(C)c1CS(=O)(=O)c1ccc(Br)cc1 | inconclusive [inhibitor, full curve, poor fit] |
| CCC(=O)Nc1cccc(-c2nnc(-c3cccc(NC(=O)CC)c3)o2)c1 | inconclusive [inhibitor, partial curve] |
| Cc1nn(CC#N)c(=O)n1-c1ccccc1 | inactive |
| Cc1ccc(NC(=O)c2ncn(CC(=O)NCc3ccc4[nH]ccc4c3)n2)cc1C | inactive |
| O=C(CSc1nnc(-c2cccnc2)s1)Nc1ccnc2ccccc12 | active: 0.517 µM |
| COc1cc(NC(=O)c2ccccc2OCc2ccccc2)cc(OC)c1OC | active: 16.4 µM |
| CC1(C)Cc2c(sc(NC(=O)C(=O)N3CCCC3)c2C#N)CO1 | inconclusive [inhibitor, partial curve] |
| Cc1cccc(C(=O)N[C@H](C(=O)Nc2nnc(C3CC3)s2)C(C)C)c1 | inconclusive [inhibitor, single point] |
| Cc1ccc(C(=O)N2C(CC(=O)Nc3ccc(Cl)cc3)C(=O)NC3CCCCC32)cc1 (centres undefined) | inconclusive [inhibitor, single point] |
| Cc1oc(-c2ccc(Cl)cc2)nc1CS(=O)CC(=O)NCCN1CCCCCC1 (centres undefined) | inconclusive [inhibitor, single point] |
| O=C(c1ccc(F)cc1)N1CCC(C(=O)N2CCN(S(=O)(=O)c3cccc(Cl)c3)CC2)CC1 | inconclusive [inhibitor, single point] |
